Results on 113 sequences are retold here after the supplement of paper PMC3724861.

The other results are listed elsewhere or left out.

The test system of the assay is T1, Caupolican (Caup) homeodomain DNA-binding domain.
T1 sequence: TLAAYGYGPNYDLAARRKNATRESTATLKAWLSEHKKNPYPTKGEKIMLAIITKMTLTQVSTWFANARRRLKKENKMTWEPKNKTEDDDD
Description: PBM E-score (8-mer, recovered from the published 9-mer minima) (E-score (dimensionless, -0.5 to 0.5)); Drosophila protein; higher = stronger relative binding preference, active = 0.31 or more. In a few lines: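 Caup's homeodomain DNA-binding domain (residues 214-303) was made by in vitro transcription and translation and applied at 100 nM to custom-designed protein binding microarrays. Each value is an enrichment score that gives relative binding preference for a short DNA word, with higher meaning stronger. The 8-mer values were recovered from published 9-mer scores, each of which was the minimum of its two constituent 8-mer scores. A cutoff of 0.31 marks candidate sites.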
Take GTAACCTA: the “PBM E-score” value was inactive: 0.112.

With GCTCCAAC, the “PBM E-score” value is inactive: -0.0892.

For the sequence AACATCTC, the “PBM E-score” value is inactive: 0.254.

With AAACTTTG, the “PBM E-score” value was inactive: 0.113.

Take GGGCCCTA: the “PBM E-score” value is inactive: -0.27.

In the case of GGCGTCAC, the “PBM E-score” value is inactive: -0.217.

Regarding AACGAAAC, the “PBM E-score” value was inactive: 0.131.

As to TACTCATA, the “PBM E-score” value was inactive: 0.14.

CCTAAAAC: the “PBM E-score” value is inactive: -0.07.

For the sequence AGGATTAC, the “PBM E-score” value is inactive: 0.125.

Take ATCGCCAC: the “PBM E-score” value was inactive: -0.0796.

In the case of CTTCCACA, the “PBM E-score” value is inactive: -0.0269.

For the sequence GGTCTGGA, the “PBM E-score” value was inactive: -0.118.

On to ACGAGCTA, for which the “PBM E-score” value was inactive: 0.0174.

Consider GAAATCCC, for which the “PBM E-score” value is inactive: -0.0261.

On to ATGTTAAG, for which the “PBM E-score” value was inactive: 0.283.

With GGACACCA, the “PBM E-score” value is inactive: 0.0485.

Turning to GAGCACTC, the “PBM E-score” value is inactive: -0.102.

As for CTTGATAC, the “PBM E-score” value was inactive: 0.182.

As to GCCATAAC, the “PBM E-score” value was inactive: 0.0397.

Turning to AAGCGCAC, the “PBM E-score” value was inactive: -0.125.

As to CAGGCGCC, the “PBM E-score” value is inactive: -0.205.

For the sequence GGCAACTA, the “PBM E-score” value is inactive: 0.0502.

As to CAACATCG, the “PBM E-score” value is inactive: 0.228.

For ACGGGTAT, the “PBM E-score” value was inactive: 0.0804.

In the case of GATAAACA, the “PBM E-score” value was inactive: 0.205.

As to CGGATCAG, the “PBM E-score” value was inactive: -0.0772.

ACATAGGG: the “PBM E-score” value is inactive: 0.0944.

As for GCTTTACA, the “PBM E-score” value was inactive: 0.188.

Turning to ACGTTTAA, the “PBM E-score” value was inactive: 0.169.

For the sequence ATCTTTGC, the “PBM E-score” value is inactive: 0.0423.

Turning to CAACGTTG, the “PBM E-score” value is inactive: 0.134.

Regarding GGCGTCCA, the “PBM E-score” value was inactive: -0.199.

For the sequence AATTCGGA, the “PBM E-score” value is inactive: 0.0276.

As for CTCGTTAA, the “PBM E-score” value was inactive: 0.0879.

For AGTCAAAC, the “PBM E-score” value was inactive: 0.0338.

As to GCAAACAA, the “PBM E-score” value is inactive: 0.194.

On to CAAGTAAC, for which the “PBM E-score” value was inactive: 0.246.

CGAGGCTA: the “PBM E-score” value was at least 0.0337.

On to GCACTCTA, for which the “PBM E-score” value is inactive: -0.0337.

For ATGTATGA, the “PBM E-score” value is active: 0.352.

CCCATTGA: the “PBM E-score” value was inactive: -0.15.

Consider GCCATCAC, for which the “PBM E-score” value is inactive: -0.0783.

AACGAGTT: the “PBM E-score” value is inactive: 0.048.

Regarding CAACTAAA, the “PBM E-score” value is inactive: 0.187.

As to AAGTGTCC, the “PBM E-score” value was inactive: 0.011.

In the case of AACTAGTA, the “PBM E-score” value is inactive: 0.245.

With AGAATACT, the “PBM E-score” value was inactive: 0.169.

As to CCCAGAAG, the “PBM E-score” value was inactive: -0.175.

For the sequence CAACCAGA, the “PBM E-score” value was inactive: 0.0903.

For AGCCTTGG, the “PBM E-score” value is inactive: -0.0907.

With GTAAACAC, the “PBM E-score” value is inactive: 0.23.

For the sequence AGTTAACA, the “PBM E-score” value was inactive: 0.265.

In the case of CACTTTCA, the “PBM E-score” value is inactive: -0.0347.

For AGTACCTA, the “PBM E-score” value is at least 0.211.

Regarding TATGAATA, the “PBM E-score” value is inactive: 0.154.

GACCGTCA: the “PBM E-score” value was inactive: -0.128.

With GCATGACC, the “PBM E-score” value is inactive: -0.0695.

As for AACAGCAT, the “PBM E-score” value is inactive: 0.175.

Consider ATAGGGCA, for which the “PBM E-score” value is at least -0.047.

Turning to CCATACCG, the “PBM E-score” value is inactive: -0.0624.

For ATGCATTC, the “PBM E-score” value was inactive: 0.102.

As for GCTCCGCA, the “PBM E-score” value is inactive: -0.155.

Take TCGGAAAA: the “PBM E-score” value is at least 0.0807.

AATGACCA: the “PBM E-score” value was inactive: -0.00469.

Consider AGTTCGAC, for which the “PBM E-score” value is inactive: 0.0205.

For CGTGCACA, the “PBM E-score” value is inactive: 0.0809.

CATAGCCG: the “PBM E-score” value is inactive: -0.0066.

Turning to ACCACTAC, the “PBM E-score” value was inactive: 0.0289.

Turning to GTGCTAAA, the “PBM E-score” value was inactive: 0.0242.

Consider GCAACTTA, for which the “PBM E-score” value is inactive: 0.0827.

With CCCTCGAA, the “PBM E-score” value was inactive: -0.101.

For the sequence AGTACTTA, the “PBM E-score” value is inactive: 0.094.

As for ATAAGGTC, the “PBM E-score” value was inactive: -0.0166.

As for ACGGGATA, the “PBM E-score” value is inactive: 0.0992.

CCCAGGAG: the “PBM E-score” value was inactive: -0.205.

As to CCAGGGCA, the “PBM E-score” value was inactive: -0.226.

Turning to CAGAACAA, the “PBM E-score” value was inactive: 0.305.

With CCTCGAGC, the “PBM E-score” value is inactive: -0.204.

AGCGAACT: the “PBM E-score” value was inactive: 0.0174.

For GACATATC, the “PBM E-score” value is inactive: 0.256.

On to AGCCAACG, for which the “PBM E-score” value is inactive: -0.142.

On to ACAATACA, for which the “PBM E-score” value is inactive: 0.305.

Consider CCGCGCGG, for which the “PBM E-score” value is at least -0.104.

As for CGGGTCCA, the “PBM E-score” value was inactive: -0.0964.

Turning to AGGGTGCG, the “PBM E-score” value is inactive: -0.187.

Consider GCGTCGCA, for which the “PBM E-score” value is inactive: -0.119.

Consider CACAAATA, for which the “PBM E-score” value was inactive: 0.158.

Consider CGATACAA, for which the “PBM E-score” value was inactive: 0.207.

As for AGAGAGCA, the “PBM E-score” value was inactive: -0.13.

In the case of ACCAATAC, the “PBM E-score” value was inactive: 0.183.

For the sequence TTAACAAA, the “PBM E-score” value is inactive: 0.169.

For the sequence CGCCGTAG, the “PBM E-score” value was inactive: -0.118.

With GGCGAACC, the “PBM E-score” value was inactive: -0.223.

For CAAAACTC, the “PBM E-score” value was inactive: -0.0395.

On to ACTTATGC, for which the “PBM E-score” value is inactive: -0.0143.

GAGATATC: the “PBM E-score” value was inactive: 0.0615.

On to TCCCGCGA, for which the “PBM E-score” value is inactive: -0.195.

TGATGACA: the “PBM E-score” value is inactive: 0.279.

In the case of CGAATTAC, the “PBM E-score” value is inactive: 0.0648.

As to GCCCGCTA, the “PBM E-score” value was inactive: -0.214.

Regarding CGAGTTCC, the “PBM E-score” value is inactive: 0.0685.

Regarding TAATCATA, the “PBM E-score” value was inactive: 0.166.

For the sequence GAAACTGC, the “PBM E-score” value was inactive: -0.184.

Take CCCCATTC: the “PBM E-score” value was inactive: -0.157.

As for GGAGGTAC, the “PBM E-score” value is inactive: -0.0425.

As to ATGCCACA, the “PBM E-score” value was at least 0.0331.

Consider AAGGCCAC, for which the “PBM E-score” value is inactive: -0.181.

On to AGGAGCGG, for which the “PBM E-score” value was inactive: -0.266.

With GCCGGGAC, the “PBM E-score” value is inactive: -0.202.

In the case of GACGCCGA, the “PBM E-score” value is inactive: -0.0749.

Take CCACCAGC: the “PBM E-score” value was inactive: -0.0942.

Regarding AATGACAA, the “PBM E-score” value was active: 0.346.
